# Measured values from the supplement of paper PMC8728848.
# Some of the results follow.
# B1: LTL (Lotus tetragonolobus), P19664 (protein)
# chain: VSFNYTEFKDDGSLILQGDAKIWTDGRLAMPTDPLVNNPKTTRSAGRALYATPVPIWDSATGNVASFVTSFNFLFVIRELKYTPTDGLVFFLAPVGTEIPSGSTGGFLGIFDGSNGFNQFVAVEFDSYHNIWDPKSLRSSHVGIDVNSIMSLKAVNWNRVSGSLEKATIIYDSQTNILSVVMTSQNGQITTIYGTIDLKTVLPEKVSVGFSATTGNPEREKHDIYSWSFTSTLKEPEEQA
# Experiments:
# Assay in all cases: glycan array binding signal (z-score within array); higher = stronger binding
# Settings in all cases: glycan notation: IUPAC condensed, linker removed
# [1] = target: Neu5Ac(a2-3)[GalNAc(b1-4)]Gal(b1-4)Glc
# Summary of the method: (§1)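 From the Consortium for Functional Glycomics database, 3228 arrays were curated, keeping only those whose protein sequence was available. Binding is given as a within-array Z-score averaged across arrays sharing a protein sequence and across linkers. Negative Z-scores can be read as non-binding.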
# [2] = target: Neu5Ac(a2-3)[GalNAc(b1-4)]Gal(b1-4)GlcNAc
# Summary of the method: as §1
# [3] = target: Neu5Ac(a2-3)[GalNAc(b1-4)]Gal(b1-4)GlcNAc(b1-3)GalNAc
# Summary of the method: as §1
# [4] = target: Neu5Ac(a2-3)[Neu5Ac(a2-6)]GalNAc
# Summary of the method: as §1
# [5] = target: Neu5Ac(a2-6)Gal
# Summary of the method: as §1
# [6] = target: Neu5Ac(a2-6)Gal(b1-3)GlcNAc(b1-3)[Gal(b1-4)GlcNAc(b1-6)]Gal(b1-4)Glc
# Summary of the method: as §1
# [7] = target: Neu5Ac(a2-6)Gal(b1-4)Glc
# Summary of the method: as §1
# [8] = target: Neu5Ac(a2-6)Gal(b1-4)GlcNAc
# Summary of the method: as §1
# [9] = target: Neu5Ac(a2-6)Gal(b1-4)GlcNAc(b1-2)Man
# Summary of the method: as §1
# [10] = target: Neu5Ac(a2-6)Gal(b1-4)GlcNAc(b1-2)Man(a1-3)Man(b1-4)GlcNAc(b1-4)GlcNAc
# Summary of the method: as §1
# [11] = target: Neu5Ac(a2-6)Gal(b1-4)GlcNAc(b1-2)Man(a1-3)[Gal(b1-4)GlcNAc(b1-2)Man(a1-6)]Man(b1-4)GlcNAc(b1-4)GlcNAc
# Summary of the method: as §1
# [12] = target: Neu5Ac(a2-6)Gal(b1-4)GlcNAc(b1-2)Man(a1-3)[GlcNAc(b1-2)Man(a1-6)]Man(b1-4)GlcNAc(b1-4)GlcNAc
# Summary of the method: as §1
# [13] = target: Neu5Ac(a2-6)Gal(b1-4)GlcNAc(b1-2)Man(a1-3)[GlcNAc(b1-4)][Neu5Ac(a2-6)Gal(b1-4)GlcNAc(b1-2)Man(a1-6)]Man(b1-4)GlcNAc(b1-4)GlcNAc
# Summary of the method: as §1
# [14] = target: Neu5Ac(a2-6)Gal(b1-4)GlcNAc(b1-2)Man(a1-3)[Man(a1-6)]Man(b1-4)GlcNAc(b1-4)GlcNAc
# Summary of the method: as §1
# [15] = target: Neu5Ac(a2-6)Gal(b1-4)GlcNAc(b1-2)Man(a1-3)[Neu5Ac(a2-3)Gal(b1-4)GlcNAc(b1-2)Man(a1-6)]Man(b1-4)GlcNAc(b1-4)GlcNAc
# Summary of the method: as §1
# [16] = target: Neu5Ac(a2-6)Gal(b1-4)GlcNAc(b1-2)Man(a1-3)[Neu5Ac(a2-6)Gal(b1-4)GlcNAc(b1-2)Man(a1-6)]Man(b1-4)GlcNAc(b1-4)GlcNAc
# Summary of the method: as §1
# [17] = target: Neu5Ac(a2-6)Gal(b1-4)GlcNAc(b1-2)Man(a1-3)[Neu5Ac(a2-6)Gal(b1-4)GlcNAc(b1-2)Man(a1-6)]Man(b1-4)GlcNAc(b1-4)[Fuc(a1-6)]GlcNAc
# Summary of the method: as §1
# [18] = target: Neu5Ac(a2-6)Gal(b1-4)GlcNAc(b1-2)Man(a1-6)Man(b1-4)GlcNAc(b1-4)GlcNAc
# Summary of the method: as §1
# [19] = target: Neu5Ac(a2-6)Gal(b1-4)GlcNAc(b1-2)Man(a1-6)[Gal(b1-4)GlcNAc(b1-2)Man(a1-3)]Man(b1-4)GlcNAc(b1-4)GlcNAc
# Summary of the method: as §1
# [20] = target: Neu5Ac(a2-6)Gal(b1-4)GlcNAc(b1-2)Man(a1-6)[GlcNAc(b1-2)Man(a1-3)]Man(b1-4)GlcNAc(b1-4)GlcNAc
# Summary of the method: as §1
# [21] = target: Neu5Ac(a2-6)Gal(b1-4)GlcNAc(b1-2)Man(a1-6)[Man(a1-3)]Man(b1-4)GlcNAc(b1-4)GlcNAc
# Summary of the method: as §1
# [22] = target: Neu5Ac(a2-6)Gal(b1-4)GlcNAc(b1-2)[Neu5Ac(a2-6)Gal(b1-4)GlcNAc(b1-4)]Man(a1-3)[GlcNAc(b1-4)][Neu5Ac(a2-6)Gal(b1-4)GlcNAc(b1-2)[Neu5Ac(a2-6)Gal(b1-4)GlcNAc(b1-6)]Man(a1-6)]Man(b1-4)GlcNAc(b1-4)GlcNAc
# Summary of the method: as §1
# [23] = target: Neu5Ac(a2-6)Gal(b1-4)GlcNAc(b1-2)[Neu5Ac(a2-6)Gal(b1-4)GlcNAc(b1-4)]Man(a1-3)[GlcNAc(b1-4)][Neu5Ac(a2-6)Gal(b1-4)GlcNAc(b1-4)Man(a1-6)]Man(b1-4)GlcNAc(b1-4)GlcNAc
# Summary of the method: as §1
# [24] = target: Neu5Ac(a2-6)Gal(b1-4)GlcNAc(b1-2)[Neu5Ac(a2-6)Gal(b1-4)GlcNAc(b1-6)]Man(a1-6)[Neu5Ac(a2-6)Gal(b1-4)GlcNAc(b1-2)Man(a1-3)][GlcNAc(b1-4)]Man(b1-4)GlcNAc(b1-4)GlcNAc
# Summary of the method: as §1
# [25] = target: Neu5Ac(a2-6)Gal(b1-4)GlcNAc(b1-3)Gal(b1-3)GlcNAc
# Summary of the method: as §1
# [26] = target: Neu5Ac(a2-6)Gal(b1-4)GlcNAc(b1-3)Gal(b1-4)GlcNAc
# Summary of the method: as §1
# [27] = target: Neu5Ac(a2-6)Gal(b1-4)GlcNAc(b1-3)Gal(b1-4)GlcNAc(b1-2)Man(a1-3)[Neu5Ac(a2-6)Gal(b1-4)GlcNAc(b1-3)Gal(b1-4)GlcNAc(b1-2)Man(a1-6)]GalNAc
# Summary of the method: as §1
# [28] = target: Neu5Ac(a2-6)Gal(b1-4)GlcNAc(b1-3)Gal(b1-4)GlcNAc(b1-3)Gal(b1-4)GlcNAc
# Summary of the method: as §1
# [29] = target: Neu5Ac(a2-6)Gal(b1-4)GlcNAc(b1-3)Gal(b1-4)GlcNAc(b1-3)Gal(b1-4)GlcNAc(b1-2)Man(a1-3)[Neu5Ac(a2-6)Gal(b1-4)GlcNAc(b1-3)Gal(b1-4)GlcNAc(b1-3)Gal(b1-4)GlcNAc(b1-2)Man(a1-6)]GalNAc
# Summary of the method: as §1
# [30] = target: Neu5Ac(a2-6)Gal(b1-4)GlcNAc(b1-3)Gal(b1-4)GlcNAc(b1-3)GalNAc
# Summary of the method: as §1
# [31] = target: Neu5Ac(a2-6)Gal(b1-4)GlcNAc(b1-3)Gal(b1-4)GlcNAc(b1-3)[Neu5Ac(a2-6)Gal(b1-4)GlcNAc(b1-3)Gal(b1-4)GlcNAc(b1-6)]GalNAc
# Summary of the method: as §1
# [32] = target: Neu5Ac(a2-6)Gal(b1-4)GlcNAc(b1-3)Gal(b1-4)GlcNAc(b1-6)[Gal(b1-3)]GalNAc
# Summary of the method: as §1
# [33] = target: Neu5Ac(a2-6)Gal(b1-4)GlcNAc(b1-3)Gal(b1-4)[Fuc(a1-3)]GlcNAc(b1-3)Gal(b1-4)[Fuc(a1-3)]GlcNAc
# Summary of the method: as §1
# [34] = target: Neu5Ac(a2-6)Gal(b1-4)GlcNAc(b1-3)GalNAc
# Summary of the method: as §1
# [35] = target: Neu5Ac(a2-6)Gal(b1-4)GlcNAc(b1-3)[Neu5Ac(a2-6)Gal(b1-4)GlcNAc(b1-6)]GalNAc
# Summary of the method: as §1
# [36] = target: Neu5Ac(a2-6)Gal(b1-4)GlcNAc(b1-6)GalNAc
# Summary of the method: as §1
# [37] = target: Neu5Ac(a2-6)Gal(b1-4)GlcNAc(b1-6)[Gal(b1-3)GlcNAc(b1-3)]Gal(b1-4)Glc
# Summary of the method: as §1
# [38] = target: Neu5Ac(a2-6)Gal(b1-4)GlcNAc(b1-6)[Gal(b1-3)]GalNAc
# Summary of the method: as §1
binder,measurement,setting,value
B1,glycan array binding signal (z-score),[1],-0.257
same,glycan array binding signal (z-score),[2],-0.24
same,glycan array binding signal (z-score),[3],1.14
same,glycan array binding signal (z-score),[4],-0.433
same,glycan array binding signal (z-score),[5],-0.162
same,glycan array binding signal (z-score),[6],-0.162
same,glycan array binding signal (z-score),[7],-0.011
same,glycan array binding signal (z-score),[8],-0.18
same,glycan array binding signal (z-score),[9],-0.258
same,glycan array binding signal (z-score),[10],-0.193
same,glycan array binding signal (z-score),[11],-0.198
same,glycan array binding signal (z-score),[12],-0.031
same,glycan array binding signal (z-score),[13],-0.386
same,glycan array binding signal (z-score),[14],-0.047
same,glycan array binding signal (z-score),[15],-0.318
same,glycan array binding signal (z-score),[16],-0.148
same,glycan array binding signal (z-score),[17],0.043
same,glycan array binding signal (z-score),[18],-0.313
same,glycan array binding signal (z-score),[19],-0.242
same,glycan array binding signal (z-score),[20],-0.209
same,glycan array binding signal (z-score),[21],-0.15
same,glycan array binding signal (z-score),[22],-0.15
same,glycan array binding signal (z-score),[23],-0.378
same,glycan array binding signal (z-score),[24],0.023
same,glycan array binding signal (z-score),[25],-0.138
same,glycan array binding signal (z-score),[26],-0.232
same,glycan array binding signal (z-score),[27],1.11
same,glycan array binding signal (z-score),[28],-0.226
same,glycan array binding signal (z-score),[29],2.02
same,glycan array binding signal (z-score),[30],-0.146
same,glycan array binding signal (z-score),[31],3.76
same,glycan array binding signal (z-score),[32],0.304
same,glycan array binding signal (z-score),[33],-0.039
same,glycan array binding signal (z-score),[34],-0.176
same,glycan array binding signal (z-score),[35],-0.267
same,glycan array binding signal (z-score),[36],-0.12
same,glycan array binding signal (z-score),[37],-0.287
same,glycan array binding signal (z-score),[38],0.02
